The values below come from the antibiotic and cytotoxicity screens of Wong et al. (2023).

The structures appear in SMILES notation. The list shows a part of the results.

One experiment relates to HepG2. Briefly: cytotoxicity call (relative viability < 0.9). Particulars: 10 µM.
On to `COc1ccc(NC(=O)N(C)C[C@H]2OCCCC[C@H](C)Oc3ccc(NC(=O)CCC(F)(F)F)cc3C(=O)N([C@@H](C)CO)C[C@@H]2C)cc1`, for which the cytotoxicity call was “inactive”.

As to `CN1C(=O)c2cc(NC(=O)c3ccc(F)cc3)ccc2OC[C@H]2O[C@@H](CC(=O)N3CCOCC3)CC[C@@H]21`, the cytotoxicity call was “inactive”.

Turning to `Cc1ccc(OCCN)c(Br)c1`, the cytotoxicity call is “inactive”.

As to `Cc1ccc(S(=O)(=O)Nc2ccc3c(c2)C(=O)N([C@@H](C)CO)C[C@H](C)[C@@H](CN(C)C(=O)Cc2ccccc2)OCCCC[C@H](C)O3)cc1`, the cytotoxicity call is “inactive”.

On to `NNC(=O)CCCC[C@H]1SC[C@H]2NC(=O)N[C@H]21`, for which the cytotoxicity call was “inactive”.

Consider `CC(=O)OCN1CCN(COC(C)=O)C1=O`, for which the cytotoxicity call was “inactive”.

For `Cc1ccc(-c2cc(C(F)(F)F)nn2-c2ccc(S(N)(=O)=O)cc2)cc1`, the cytotoxicity call was “active”.

`Nc1[nH]ncc1-c1cc(Cl)ccc1Oc1cc(F)c(S(=O)(=O)Nc2cscn2)cc1Cl`: the cytotoxicity call was “inactive”.

Regarding `C[C@H](CO)N1C[C@H](C)[C@@H](CN(C)C(=O)Nc2ccc(C(F)(F)F)cc2)Oc2ccc(NC(=O)Cn3cnnn3)cc2C1=O`, the cytotoxicity call was “inactive”.

Consider `CCCCC[C@@H](O)C[C@@H](O)CC(=O)O[C@@H](CCCCC)C[C@@H](O)CC(=O)OC[C@@H](O)[C@@H](O)[C@@H](O)[C@@H](O)CO`, for which the cytotoxicity call was “inactive”.

As to `CC(C)NC(=O)N(C)C[C@@H]1Oc2ccc(NS(=O)(=O)c3cccs3)cc2CC(=O)N([C@@H](C)CO)C[C@@H]1C`, the cytotoxicity call was “inactive”.

On to `C[C@@H]1CCCCO[C@H](CN(C)S(=O)(=O)c2cccs2)[C@@H](C)CN([C@H](C)CO)C(=O)c2cc(NS(C)(=O)=O)ccc2O1`, for which the cytotoxicity call was “inactive”.

For `Cc1noc(C)c1S(=O)(=O)N(C)C[C@@H]1Oc2ccc(NC(=O)Nc3ccc4c(c3)OCO4)cc2C(=O)N([C@@H](C)CO)C[C@@H]1C`, the cytotoxicity call is “inactive”.

As to `Cc1ccc(-c2ccc3c(c2)O[C@H](CN(C)C(=O)CN(C)C)[C@@H](C)CN([C@@H](C)CO)S3(=O)=O)cc1`, the cytotoxicity call is “inactive”.

Consider `C[C@H](CO)N1C[C@H](C)[C@@H](CN(C)S(=O)(=O)c2ccccc2)OCCCC[C@H](C)Oc2ccc(NC(=O)Nc3ccc4c(c3)OCO4)cc2C1=O`, for which the cytotoxicity call is “inactive”.

As for `Cc1noc(C)c1NC(=O)N(C)C[C@H]1Oc2cc(C#CCN(C)C)ccc2S(=O)(=O)N([C@@H](C)CO)C[C@@H]1C`, the cytotoxicity call was “inactive”.

As for `COc1ccc(NC(=O)N(C)C[C@H]2Oc3ccc(NC(=O)Nc4cccc5ccccc45)cc3CC(=O)N([C@@H](C)CO)C[C@H]2C)cc1`, the cytotoxicity call was “inactive”.

Turning to `COc1ccccc1NC(=O)N(C)C[C@H]1OCc2ccccc2-c2c(n(C)c3ccccc23)C(=O)N([C@@H](C)CO)C[C@H]1C`, the cytotoxicity call was “inactive”.

For `CNc1ccc(-c2nc(N3CCOCC3)c3sc(CN(C)c4ncc(C(=O)NO)cn4)cc3n2)cn1`, the cytotoxicity call is “active”.

On to `COc1ccc(CN(C)C[C@H]2OCCCC[C@H](C)Oc3ccc(NC(=O)c4ccncc4)cc3C(=O)N([C@@H](C)CO)C[C@@H]2C)cc1`, for which the cytotoxicity call was “inactive”.

As to `CCS(=O)(=O)Nc1ccc2c(c1)C(=O)N(C)C[C@H](OC)[C@H](C)CN(Cc1nccs1)[C@@H](C)CO2`, the cytotoxicity call was “inactive”.

On to `C[C@H](N)C(=O)N[C@@H](C)P(=O)(O)O`, for which the cytotoxicity call is “inactive”.

For another experiment, the system named is S. aureus RN4220. Briefly: growth inhibition call (relative growth <= 0.2). Particulars: 50 µM.
Take `COc1ccc(CN(C)C[C@@H]2OCCCC[C@H](C)Oc3ccc(NS(=O)(=O)c4c(C)noc4C)cc3C(=O)N([C@H](C)CO)C[C@@H]2C)cc1`: the growth inhibition call is “inactive”.

As for `C[C@@H]1CN([C@@H](C)CO)C(=O)c2cc(NC(=O)Cc3ccccc3)ccc2O[C@@H]1CN(C)Cc1ccc(-c2ccccc2)cc1`, the growth inhibition call is “inactive”.

`C[C@H](CO)N1C[C@H](C)[C@H](CN(C)Cc2ccc(-c3ccccc3)cc2)Oc2ccc(NC(=O)Nc3cccc4ccccc34)cc2CC1=O`: the growth inhibition call was “inactive”.

For `C[C@@H]1CCCCO[C@H](CN(C)C(=O)Nc2ccc3c(c2)OCO3)[C@H](C)CN([C@@H](C)CO)C(=O)c2cc(NC(=O)c3ccncc3)ccc2O1`, the growth inhibition call was “inactive”.

For `NCc1ccc(-c2ccccc2O)cc1`, the growth inhibition call was “inactive”.

Regarding `C[C@@H]1CN([C@@H](C)CO)C(=O)c2cc(NC(=O)Cn3cnnn3)ccc2O[C@@H]1CN(C)S(C)(=O)=O`, the growth inhibition call was “inactive”.

Take `C[C@H]1CCCCO[C@@H](CN(C)Cc2ccncc2)[C@@H](C)CN([C@@H](C)CO)C(=O)c2cc(NC(=O)c3ccccc3)ccc2O1`: the growth inhibition call is “inactive”.

As to `COc1ccc(NC(=O)N(C)C[C@H]2Oc3ccc(NC(=O)CCN4CCOCC4)cc3CC(=O)N([C@@H](C)CO)C[C@H]2C)cc1`, the growth inhibition call was “inactive”.

Take `C[C@@H]1CN([C@H](C)CO)C(=O)Cc2cc(N(C)C)ccc2O[C@H]1CN(C)S(=O)(=O)c1cn(C)cn1`: the growth inhibition call was “inactive”.

For the compound `C[C@H]1CCCCO[C@H](CN(C)S(=O)(=O)c2ccc(Cl)cc2)[C@@H](C)CN([C@@H](C)CO)C(=O)c2cc(NS(=O)(=O)c3cccs3)ccc2O1`, the growth inhibition call is “inactive”.

As to `O=C(C[C@@H]1CC[C@@H]2[C@H](COC[C@H](O)CN2C(=O)Nc2ccc(Cl)cc2)O1)NCCc1ccncc1`, the growth inhibition call was “inactive”.

Consider `CC(C)NC(=O)N(C)C[C@H]1Oc2ccc(NC(=O)Cn3cnnn3)cc2CC(=O)N([C@H](C)CO)C[C@H]1C`, for which the growth inhibition call is “inactive”.

As to `C[C@H]1CCCCO[C@H](CN(C)C(=O)Nc2ccc(F)cc2)[C@@H](C)CN([C@@H](C)CO)C(=O)c2cc(NC(=O)c3ccccc3)ccc2O1`, the growth inhibition call is “inactive”.

As to `CC(=O)N(C)C[C@@H]1Oc2ncc(C#C[C@H](C)O)cc2C(=O)N([C@@H](C)CO)C[C@H]1C`, the growth inhibition call was “inactive”.

Consider `C[C@@H]1CCCCO[C@H](CN(C)S(=O)(=O)c2ccc(Cl)cc2)[C@@H](C)CN([C@H](C)CO)C(=O)c2cc(NC(=O)Cc3ccccc3)ccc2O1`, for which the growth inhibition call is “inactive”.

As for `C[C@@H]1CN([C@H](C)CO)C(=O)c2cc(NS(=O)(=O)c3ccc(Cl)cc3)ccc2O[C@@H]1CN(C)Cc1ccc(C(=O)Nc2ccccc2N)cc1`, the growth inhibition call is “inactive”.

As for `Cc1cc(C(=O)Nc2cccc3c2O[C@H](CN(C)S(=O)(=O)c2ccc(F)cc2)[C@@H](C)CN([C@H](C)CO)C3=O)n(C)n1`, the growth inhibition call is “inactive”.

`C[C@@H]1CCCCO[C@H](CN(C)C(=O)Nc2ccc(C(F)(F)F)cc2)[C@@H](C)CN([C@@H](C)CO)C(=O)c2cc(NC(=O)NC3CCCCC3)ccc2O1`: the growth inhibition call is “inactive”.

On to `COc1ccc(NC(=O)N(C)C[C@H]2OCCCC[C@H](C)Oc3ccc(NC(=O)CCC(F)(F)F)cc3C(=O)N([C@@H](C)CO)C[C@@H]2C)cc1`, for which the growth inhibition call is “inactive”.

As to `CN1C(=O)c2cc(NC(=O)c3ccc(F)cc3)ccc2OC[C@H]2O[C@@H](CC(=O)N3CCOCC3)CC[C@@H]21`, the growth inhibition call was “inactive”.

In the case of `Cc1ccc(OCCN)c(Br)c1`, the growth inhibition call is “inactive”.

Consider `Cc1ccc(S(=O)(=O)Nc2ccc3c(c2)C(=O)N([C@@H](C)CO)C[C@H](C)[C@@H](CN(C)C(=O)Cc2ccccc2)OCCCC[C@H](C)O3)cc1`, for which the growth inhibition call is “inactive”.

`NNC(=O)CCCC[C@H]1SC[C@H]2NC(=O)N[C@H]21`: the growth inhibition call is “inactive”.

As for `CC(=O)OCN1CCN(COC(C)=O)C1=O`, the growth inhibition call was “inactive”.

As for `Cc1ccc(-c2cc(C(F)(F)F)nn2-c2ccc(S(N)(=O)=O)cc2)cc1`, the growth inhibition call is “inactive”.

Consider `Nc1[nH]ncc1-c1cc(Cl)ccc1Oc1cc(F)c(S(=O)(=O)Nc2cscn2)cc1Cl`, for which the growth inhibition call is “inactive”.

For `C[C@H](CO)N1C[C@H](C)[C@@H](CN(C)C(=O)Nc2ccc(C(F)(F)F)cc2)Oc2ccc(NC(=O)Cn3cnnn3)cc2C1=O`, the growth inhibition call was “inactive”.

For the compound `CCCCC[C@@H](O)C[C@@H](O)CC(=O)O[C@@H](CCCCC)C[C@@H](O)CC(=O)OC[C@@H](O)[C@@H](O)[C@@H](O)[C@@H](O)CO`, the growth inhibition call is “inactive”.

On to `CC(C)NC(=O)N(C)C[C@@H]1Oc2ccc(NS(=O)(=O)c3cccs3)cc2CC(=O)N([C@@H](C)CO)C[C@@H]1C`, for which the growth inhibition call was “inactive”.

For the compound `C[C@@H]1CCCCO[C@H](CN(C)S(=O)(=O)c2cccs2)[C@@H](C)CN([C@H](C)CO)C(=O)c2cc(NS(C)(=O)=O)ccc2O1`, the growth inhibition call is “inactive”.

Take `Cc1noc(C)c1S(=O)(=O)N(C)C[C@@H]1Oc2ccc(NC(=O)Nc3ccc4c(c3)OCO4)cc2C(=O)N([C@@H](C)CO)C[C@@H]1C`: the growth inhibition call was “inactive”.

`Cc1ccc(-c2ccc3c(c2)O[C@H](CN(C)C(=O)CN(C)C)[C@@H](C)CN([C@@H](C)CO)S3(=O)=O)cc1`: the growth inhibition call is “inactive”.

For the compound `C[C@H](CO)N1C[C@H](C)[C@@H](CN(C)S(=O)(=O)c2ccccc2)OCCCC[C@H](C)Oc2ccc(NC(=O)Nc3ccc4c(c3)OCO4)cc2C1=O`, the growth inhibition call was “inactive”.

On to `Cc1noc(C)c1NC(=O)N(C)C[C@H]1Oc2cc(C#CCN(C)C)ccc2S(=O)(=O)N([C@@H](C)CO)C[C@@H]1C`, for which the growth inhibition call was “inactive”.

Consider `COc1ccc(NC(=O)N(C)C[C@H]2Oc3ccc(NC(=O)Nc4cccc5ccccc45)cc3CC(=O)N([C@@H](C)CO)C[C@H]2C)cc1`, for which the growth inhibition call was “inactive”.

For `COc1ccccc1NC(=O)N(C)C[C@H]1OCc2ccccc2-c2c(n(C)c3ccccc23)C(=O)N([C@@H](C)CO)C[C@H]1C`, the growth inhibition call was “inactive”.

On to `CNc1ccc(-c2nc(N3CCOCC3)c3sc(CN(C)c4ncc(C(=O)NO)cn4)cc3n2)cn1`, for which the growth inhibition call was “inactive”.

For the compound `COc1ccc(CN(C)C[C@H]2OCCCC[C@H](C)Oc3ccc(NC(=O)c4ccncc4)cc3C(=O)N([C@@H](C)CO)C[C@@H]2C)cc1`, the growth inhibition call is “inactive”.

Consider `CCS(=O)(=O)Nc1ccc2c(c1)C(=O)N(C)C[C@H](OC)[C@H](C)CN(Cc1nccs1)[C@@H](C)CO2`, for which the growth inhibition call is “inactive”.

Take `C[C@H](N)C(=O)N[C@@H](C)P(=O)(O)O`: the growth inhibition call was “inactive”.
